Tests used:
Format in all cases: biochemical
[1] = test system: Trichoderma reesei cellulase composition; test: Hydrolysis of milled unwashed pretreated corn stover (PCS) by the Trichoderma reesei cellulase composition with/without GH61 polypeptide and sulfur-containing compound; conditions: T. aurantiacus GH61A polypeptide, L-cysteine 5 mM present
Protocol: (§1) The effect of various sulfur-containing compounds on the cellulolytic enhancing activity of GH61 polypeptides was evaluated according to the procedures described below.

[2] = test system: Trichoderma reesei cellulase composition; test: Hydrolysis of milled washed pretreated corn stover (PCS) by the Trichoderma reesei cellulase composition with/without GH61 polypeptide and sulfur-containing compound
Protocol: as §1

[3] = test system: Trichoderma reesei cellulase composition; test: Hydrolysis of AVICEL® (microcrystalline cellulose) by the Trichoderma reesei cellulase composition with/without GH61 polypeptide and sulfur-containing compound; conditions: for GH61 effect (Equation 4): 1 and 3 days
Protocol: as §1

| Molecule | GH61 effect (Equation 4) ([1]; 7 days) | GH61 effect (Equation 4) ([1]; FIG. 5) | sulfur-containing compound effect(no GH61) ([2]; PCS, L-cysteine 1 mM, no GH61 polypeptide, 1 and 3 days, FIG. 4A) | Change of the GH61 effect as L-cysteine concentration was increased ([2]; washed milled PCS, day 1, L-cysteine 0, 0.01, 0.1, 1, 10 mM, T. aurantiacus GH61A polypeptide 5.6, 14 or 28 mg per liter, FIG. 4B) | GH61 effect (Equation 4) ([3]; AVICEL®, L-cysteine 10 mM, T. aurantiacus GH61A polypeptide 14 mg per liter (25% w/w of cellulase), FIG. 3A) | Change of the GH61 effect as L-cysteine concentration was increased ([3]; AVICEL®, day 1, L-cysteine 0, 0.01, 0.1, 1, 10 mM, T. aurantiacus GH61A polypeptide 5.6, 14 or 28 mg per liter, FIG. 3B) | GH61 effect (Equation 4) ([3]; AVICEL®, L-cysteine 5 mM present, GH61 polypeptide at 2 mg per g cellulose, FIG. 6I) | Effect of the GH61 polypeptide on hydrolysis of AVICEL® (microcrystalline cellulose) by the T. reesei cellulase composition ([3]; in the absence of a sulfur-containing compound) |
| --- | --- | --- | --- | --- | --- | --- | --- | --- |
| N[C@@H](CS)C(=O)O [L-cysteine] | 1.36±0.05 | greater than 1 | < 1 | larger | > 1 | larger |  |  |
| T. reesei GH61B polypeptide: GH61B polypeptide having cellulolytic enhancing activity (SEQ ID NO: 16), recombinantly prepared in Aspergillus oryzae JaL250 (protein, listed as Trichoderma reesei) MKSCAILAALGCLAGSVLGHGQVQNFTINGQYNQGFILDYYYQKQNTGHFPNVAGWYAEDLDLGFISPDQYTTPDIVCHKNAAPGAISATAAAGSNIVFQWGPGVWPHPYGPIVTYVVECSGSCTTVNKNNLRWVKIQEAGINYNTQVWAQQDLINQGNKWTVKIPSSLRPGNYVFRHELLAAHGASSANGMQNYPQCVNIAVTGSGTKALPAGTPATQLYKPTDPGILFNPYTTITSYTIPGPALWQG |  |  |  |  |  |  | greater than 1 | did not enhance |

Reference: patent US20130189747A1, “Compositions Comprising A Polypeptide Having Cellulolytic Enhancing Activity And A Sulfur-Containing Compound And Uses Thereof” (priority 2010, published 2013)
